Data on 57 compounds can be found in PubChem BioAssay AID463173 (ICCB-Longwood Screening Facility, Harvard Medical School, 2010).

Out of some 52,000 compounds screened, about 4,300 (8.3%) were called active. Cut-off read from the data, not from the text of the source: active = survival mostly below about 52% (no sharp cut-off); inactive = mostly above about 56%. This is one part of the list.

The subject of the test is DeltatarO mutant. As to the kind of experiment: growth inhibition of S. aureus wild type versus tarO mutant, primary screen, teichoic acid synthesis inhibitors, RN4220, OD600 (AID 463173). As to conditions: OD600, 18 h, stronger effect = lower value, screened at 18.75 µg/mL (by protocol).
In the case of `Cc1cc(C)c2c(n1)nn1c(C)c(CCC(=O)Nc3ccc(C)c(Cl)c3)c(C)nc21`, the survival was inactive: 84%. `CN=c1sc2ccccc2n1CC(O)c1ccccc1` (configuration not stated): the survival was inactive: 103%. For `Cc1cn2c(=O)cc(COC(=O)c3cccc(NC(=O)C(C)Oc4ccccc4)c3)nc2s1` (configuration not stated), the survival is inactive: 95%. With `CCCCSCCCNC(=O)c1cn(CC)c2ccc(S(=O)(=O)N3CCOCC3)cc2c1=O`, the survival was inactive: 61%. `CC1=CC(c2ccccc2)NC(=S)N1` (configuration not stated): the survival was inactive: 78%.

Turning to `CCOc1ccc(NC(=O)CSc2nnc3c(C)cc4ccccc4n23)cc1`, the survival is inactive: 137%. As for `COc1ccc(S(=O)(=O)N2CCC(C(=O)Nc3ccc(Oc4ccccc4)cc3)CC2)cc1OC`, the survival was inactive: 57%. On to `COc1ccc(NC(=O)c2ccc(-c3nc(COc4ccccc4)c(C)o3)cc2)cc1`, for which the survival was inactive: 75%. Then `O=C(O)CCN1C(=O)CSC1=O`, with inactive: 72%; and `COc1ccc(NC(=O)CSc2nc3ccccc3n2CC(=O)NCc2ccc(F)cc2)cc1`, with active: -5%; and `CC(C)NC(=O)c1ccc(OC2CSC2)cc1`, with inactive: 98%. Regarding `COC(=O)c1ccc(NC(=O)c2cc3cc(C)ccc3n2C)cc1`, the survival is inactive: 66%. With `Cc1ccccc1OCC(=O)Nc1ccc(OCc2cc(=O)n3ccccc3n2)cc1`, the survival is inactive: 77%. Turning to `COc1ccc(Cl)cc1NC(=O)C1CCCN(S(=O)(=O)c2ccc3c(c2)CCCC(=O)N3)C1` (configuration not stated), the survival was inactive: 119%. Take `Cc1ccc(CNC(=O)c2ccc3oc(=O)n(Cc4ccccc4)c3c2)cc1`: the survival is inactive: 64%. Consider `O=C(CSc1nc2c(c(=O)[nH]1)CN(Cc1ccc3c(c1)OCO3)CC2)Nc1cc(F)ccc1F`, for which the survival was inactive: 79%.

`CCC1Oc2ccc(C)cc2N(CC(=O)NC(C)C)C1=O` (configuration not stated): the survival is inactive: 100%. In the case of `COC(=O)c1ccccc1NC(=O)Cn1nc(C)c2nn(-c3ccc(Cl)cc3)c(C)c2c1=O`, the survival is inactive: 94%. The same measure for `Cc1cccc(NC(c2cccc(Cl)c2)c2ccc3cccnc3c2O)n1` (configuration not stated): active: 2%. Then `COc1cc(NC(=O)Nc2nnc(N3CCCCC3)s2)cc(OC)c1`, with inactive: 68%; and `CC1CCc2nc3ccc(S(=O)(=O)N4CCC(C(=O)NCc5ccccc5Cl)CC4)cc3c(C(=O)O)c2C1` (configuration not stated), with inactive: 99%.

With `Cc1nn(-c2ccccc2)c2c1N(CCCC(=O)NCc1ccc(OC(C)C)cc1)C(=O)CS2`, the survival was inactive: 84%. As to `O=c1c2[nH]c3ccccc3c2nc(SCc2ccccc2F)n1-c1ccc(F)cc1`, the survival is inactive: 83%. In the case of `CCc1ccccc1NC(=O)Cn1nc(-c2cc(C)ccc2C)c2c(c1=O)CCCC2`, the survival is active: 41%. Turning to `O=C1C2C3c4ccccc4C(c4ccccc43)C2C(=O)N1CN1CCOCC1` (configuration not stated), the survival is inactive: 78%.

Turning to `Cc1ccc(Cn2cc(S(=O)(=O)c3ccccc3)c(=O)c3cc(F)c(N4CCOCC4)cc32)cc1`, the survival was inactive: 85%. The same measure for `COc1ccc(NC(=O)C(c2ccc(OC)cc2)N(C)C(=O)Cc2cccs2)cc1` (configuration not stated): inactive: 61%; for `Cn1ccc2cc(S(=O)(=O)N3CCN(C(=O)Nc4cccc(F)c4)CC3)ccc21`: inactive: 102%; for `COc1cccc(C(=O)CN2C(=O)C(C)(C)Oc3ccc(C(=O)N4CCOCC4)cc32)c1`: inactive: 83%.

In the case of `COc1ccccc1N1CCN(S(=O)(=O)CCNC(=O)c2cc(=O)c3ccccc3o2)CC1`, the survival is inactive: 87%. The same measure for `CC(C)(Oc1ccc(Cl)cc1)C(=O)Nc1ccc(-c2nc3ncccc3o2)cc1`: inactive: 52%; for `CCCCOC(=O)c1ccc(NC(=O)C2(c3cccs3)CCOCC2)cc1`: inactive: 83%; for `CC(=O)N1CCc2cc(CNS(=O)(=O)c3cccs3)ccc21`: inactive: 75%. Regarding `COc1ccc(-c2nnc(SCC(=O)Nc3cccc(C)c3)s2)cc1`, the survival is inactive: 91%. Take `CCOC(=O)c1c(NC(=O)CSc2cn(CCNC(=O)c3ccc(OC)cc3)c3ccccc23)sc2c1CCC2`: the survival was inactive: 78%.

As for `CC1(C)CC(NC(=O)c2ccccc2Cl)CC(C)(C)N1`, the survival is inactive: 63%. As for `COc1ccccc1-c1cc(C(=O)Nc2c(C)nn(Cc3ccc(Cl)cc3)c2C)no1`, the survival was active: 29%. The same measure for `COc1ccc(NC(=O)CSc2nccn2C2CCCC2)cc1OC`: inactive: 89%; for `Cc1nn(CC(=O)Nc2ccc(C(C)C)cc2)c(=O)c2c(C)n(-c3ccc(Cl)cc3)nc12`: inactive: 92%. As for `COc1ccc(-c2cn3nc(N4CCCC(C(=O)Nc5ccccc5F)C4)sc3n2)cc1` (configuration not stated), the survival was inactive: 83%. As to `CCOc1ccccc1N(C)C(=O)c1sc2nc3n(c(=O)c2c1C)CCCC3`, the survival is inactive: 64%.

As to `CCCCN(CCCNC(=O)c1cc(Nc2ccc(OC)cc2OC)nc2ccccc12)Cc1ccccc1`, the survival was inactive: 99%.

Turning to `O=C(CSc1nc(=O)n(Cc2ccncc2)c2c1CCC2)Nc1ccccc1`, the survival was inactive: 68%. Consider `COc1cccc(N2CCN(C(=O)CCn3nc(C)c(S(=O)(=O)N4CCCC4)c3C)CC2)c1`, for which the survival was inactive: 92%. The same measure for `COc1cccc(CNC(=O)CCc2c(C)c3cc4c(C)coc4cc3oc2=O)c1`: inactive: 63%. With `COc1ccc(C(CNC(=O)COc2cc(C)c(Cl)c(C)c2)N2CCCCC2)cc1` (configuration not stated), the survival was inactive: 83%.

Turning to `Cc1ccccc1C(=O)Nc1cccc(-c2nc3cccnc3s2)c1`, the survival was inactive: 81%. For `Cc1cc(C)c2c(n1)sc1c(N3CCN(CCO)CC3)ncnc12`, the survival is inactive: 109%. In the case of `CCC(Oc1ccccc1)C(=O)Nc1nnc(S(=O)(=O)N2CCCC2)s1` (configuration not stated), the survival is inactive: 103%. For `CCc1ccc(OCC(=O)Nc2c(C(=O)c3ccc(Br)cc3)oc3ccccc23)cc1`, the survival was inactive: 85%. Take `Nc1ccc(S(=O)(=O)N2CCCC(C(=O)O)C2)cc1` (configuration not stated): the survival was inactive: 95%. For `CCOc1cccc2sc(=NC(=O)c3ccc(S(=O)(=O)N4CCOCC4)cc3)n(C)c12`, the survival was inactive: 77%. Then `CCn1cc(C(=O)N2CCN(c3ccccc3OC)CC2)c2cc(OC)c(OC)cc2c1=O`, with inactive: 63%; and `COc1ccc2c(=O)c(NC(=O)Nc3ccc(F)cc3F)c[nH]c2c1`, with inactive: 92%; and `CCN1C(=O)C(C2SC(=S)N(CC)C2=O)SC1=S` (configuration not stated), with inactive: 95%. The same measure for `COc1ccc(C(=O)Nc2ccc3c(c2)CCCN3S(=O)(=O)c2ccc(C)cc2)cc1`: inactive: 76%; for `c1ccc2sc(N3CCN(Cc4nnnn4C4CCCC4)CC3)nc2c1`: inactive: 85%.
